Measured values published in the antibiotic and cytotoxicity screens of Wong et al. (2023).
This is one part of the list.

Tests used:
[1] = tested on: HSkMC (human skeletal muscle cells); assay: cytotoxicity call (relative viability < 0.9); details: 10 µM
[2] = tested on: HepG2; assay: cytotoxicity call (relative viability < 0.9); details: 10 µM
[3] = tested on: S. aureus RN4220; assay: growth inhibition call (relative growth <= 0.2); details: 50 µM

C[C@@H]1CN([C@@H](C)CO)C(=O)Cc2cc(NC(=O)Cc3ccccc3)ccc2O[C@H]1CN(C)S(=O)(=O)c1ccccc1
inactive: cytotoxicity call [1] | cytotoxicity call [2] | growth inhibition call [3]

Fc1ccccc1[C@H]1Nc2ccc3ccccc3c2[C@H]2C=CC[C@@H]21
inactive: cytotoxicity call [1] | cytotoxicity call [2] | growth inhibition call [3]

C[C@H]1CCCCO[C@H](CN(C)S(=O)(=O)c2ccc(Cl)cc2)[C@@H](C)CN([C@@H](C)CO)C(=O)c2cc(NC(=O)Nc3ccc(C(F)(F)F)cc3)ccc2O1
inactive: cytotoxicity call [1] | cytotoxicity call [2] | growth inhibition call [3]

C[C@H]1CN([C@@H](C)CO)C(=O)c2cc(NC(=O)Nc3ccccc3)ccc2O[C@H]1CN(C)C(=O)Nc1ccc(C(F)(F)F)cc1
inactive: cytotoxicity call [1] | cytotoxicity call [2] | growth inhibition call [3]

CO[C@H](C(=O)N(C)C[C@@H]1OCc2ccccc2-c2c(n(C)c3ccccc23)C(=O)N([C@@H](C)CO)C[C@@H]1C)c1ccccc1
inactive: cytotoxicity call [1] | cytotoxicity call [2] | growth inhibition call [3]

C[C@H](CO)N1C[C@H](C)[C@@H](CN(C)C(=O)Nc2ccc(C(F)(F)F)cc2)OCCCC[C@H](C)Oc2ccc(NS(=O)(=O)c3ccccc3)cc2C1=O
inactive: cytotoxicity call [1] | cytotoxicity call [2] | growth inhibition call [3]

Cc1noc(C)c1NC(=O)N(C)C[C@H]1OCCCC[C@@H](C)Oc2ccc(NC(=O)NC3CCCCC3)cc2C(=O)N([C@@H](C)CO)C[C@H]1C
inactive: cytotoxicity call [1] | cytotoxicity call [2] | growth inhibition call [3]

C[C@@H]1CCCCO[C@@H](CN(C)S(=O)(=O)c2cccs2)[C@@H](C)CN([C@H](C)CO)C(=O)c2cc(NS(=O)(=O)c3ccc(Cl)cc3)ccc2O1
inactive: cytotoxicity call [1] | cytotoxicity call [2] | growth inhibition call [3]
